Data as given in the supplement of paper PMC11417369.
Some of the results follow.

Test system: PfSIP2 AP2 domain 1 (GST-tagged)
Experiment: gcPBM binding intensity (ln(normalized median fluorescence intensity)); higher = stronger DNA binding
Method in brief: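 After 1 h on an Agilent 4 × 180k array of primer-extended double-stranded 36-bp intergenic genomic probes and negative controls, bound GST-tagged P. falciparum DNA-binding domains were detected with Alexa488 anti-GST antibody and scanned at 488 nm. The domains had been expressed in E. coli, and binding took place in 1× PBS with 1% milk, 0.2 mg/ml BSA, 0.5% salmon testes DNA and 0.03% Triton X-100. Binding intensity is the highest Masliner-normalised natural-log median intensity across replicate spots of either probe orientation.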

| Sequence | gcPBM binding intensity (ln) |
| --- | --- |
| TAGTATGATAACTTGGGTACATAAATATGGAGTATC [XGTACX_site1296] | 7.24 |
| TTTTTAATTCAAAAAACTGTATGTTATATGTCAAAT [CACACA_negctrl_site72] | 6.92 |
| TTCATTTTATTTTAAGTGCATATTTTTATTTTTTTG | 8.27 |
| AGAATTTAGAAACAATGTTGTATATGTAATACCTTT [XGTACX_negctrl_site149] | 6.75 |
| TATATATATAAAAAAAGTACGTATTTAATAAAAATA [XGTACX_site4992] | 7.81 |
| GATATTATGTGTTTGGTATTTCGATCTTGTCAGGAC [CACACA_negctrl_site426] | 6.99 |
| ATTTCTATATATTGTGCATGCCATTACACCAAATAT [TGCATGCA_site813] | 7.57 |
| TATATATATAAATACACACACACATATATATATATA [CACACA_site4585] | 9.26 |
| TCATTTTACAGATGTGCATGTGAATCAATCTATTTA [TGCATGCA_site787] | 7.19 |
| AAAAAAAAAAAAAAAACACACAAACAAATGAATAAA [CACACA_site5769] | 7.59 |
| AATATACAAATTACAAGTACAAATCAATATTATATG [XGTACX_site7521] | 6.95 |
| GTATATAATTTATATTGTACGCATATTATTATCATT [XGTACX_site7277] | 7.22 |
| TGTAGTTTTTATTTATGTACGCATAACATAATTTAA [XGTACX_site104] | 7.38 |
| ACGAAGTATATGAATACACACATATTTTTAATGAAA [CACACA_site4070] | 6.67 |
| AGTAAATTTGATGGTCGTACAAAAAAAAAGTAGGAC [XGTACX_site2600] | 7.12 |
| TTTTTAATCAGAAATATTTATTAAAGAATTTTATAG [GTGCAC_negctrl_site725] | 6.65 |
| ATATACATAATTTGGAGTACAATATCATATAAATAT [XGTACX_site6334] | 7.25 |
| AATGTACAAATACGTACACACATATATATATATATA [CACACA_site1542] | 9.03 |
| GTATAAAATATTTTATGTACATAATATATATATATA [XGTACX_site2489] | 8.68 |
| AAATAAAGGAAATGTATATCAACATTAAAATAAGGC [CACACA_negctrl_site441] | 7.24 |
| TTTTACAATAACAATACACACTATAATATGTAAATA [CACACA_site6772] | 7.11 |
| CATTTAAAATTTGTTTGTACATATATATATATATAT [XGTACX_site6729] | 9.76 |

| Sequence | gcPBM binding intensity (ln) |
| --- | --- |
| ATATATATATATATATGTACTTATGTCATCATTAAA [XGTACX_site5316] | 9.75 |
| TATATGTATGTTTGTGTGCACACATAAATATTATAT | 8.48 |
| TAGTATAATATGAACACACACACACCGACAAAAAAA [CACACA_site5151] | 7.02 |
| AATTGAAAAAGAAATTGTACATTTTATTTTTATTAT [XGTACX_site1973] | 6.81 |
| ATATAATTTATATATTCACACAAGGAATACTTTTAT [CACACA_site5506] | 6.93 |
| ATACATATATATATATGTACATATGTATTTTTTATT [XGTACX_site105] | 7.38 |
| AATAAAATATATTCCTGTACATATGATTCTTTTTTT [XGTACX_site7980] | 6.94 |
| TTTACATATTTATATACACACTTTTGCGTGCGTGGT [CACACA_site6647] | 7.13 |
| ACTATACAGTTATACACACACATATATCTATAATAT [CACACA_site6283] | 7.39 |
| ATGGAATAATCACGTACACACAAGAAAAAAAAAAAT [CACACA_site527] | 7.2 |
| GGATAATATATTAGAACACACATATATATGTAAAAA [CACACA_site185] | 7.08 |
| ATTACAAATACAAACACACAAATGTTTTTCATTCAA [CACACA_site7639] | 6.94 |
| TTTTATTTGACAAGCACACACTTAAATATATATATA [CACACA_site5792] | 8.79 |
| AAACAAAAAATAAAATGTACATTTATTACGATAAGT [XGTACX_site2392] | 7.48 |
| TATATATGTAGACGTTGTACTTTTTTGTAAGTTTAA [XGTACX_site5638] | 7.27 |
| TGTGTCAAGTTTAATAAACGCATATAATATATATGA [CACACA_negctrl_site607] | 6.85 |
| TTTAAATTTTTATATTGTACTTTATTTATTTATTTA [XGTACX_site869] | 6.95 |
| CATGACATATCCTGTAGTACAACGTATATATAAGAT [XGTACX_site2577] | 7.01 |
| AAAATAAAATCATAAAGTACAAAAAGAAAATAAAAA [XGTACX_site7376] | 6.99 |
| TTTAATTTTTATATAACACACATATTGTAATTATGT [CACACA_site4566] | 6.97 |
| ATGTTTAATTAAATATGTACTTATTATATTATATGT [XGTACX_site8137] | 7.23 |
| AGGAATCTACATATATGTACATATATTGATATATTT [XGTACX_site137] | 6.88 |

| Sequence | gcPBM binding intensity (ln) |
| --- | --- |
| TCAATAAATATACATACATGCATACATACATACATA [TGCATGCA_site197] | 7.07 |
| TGTGTTAATATGAATTTAAACATAAATAAATAAATA [CACACA_negctrl_site1589] | 6.69 |
| AATTTTCAATAGTATACACACAATTATATATATATA [CACACA_site1116] | 9.37 |
| TCTTTTCTCGGAAGGGTGCAAGGAATTAATGAAATA [GTGCAC_site9706] | 11.1 |
| ATAAAAACTACATTCACACAAAAAAAAATCTACAAA [CACACA_site6109] | 6.87 |
| AATAATATTAATAAAAGTACATGTGTAATATATATA [XGTACX_site5922] | 7.65 |
| ATAAAGATAATATATGCACACATATAAATATATAAA [CACACA_site9153] | 7.18 |
| ATATATATATGTTAGGTGCATATATATTTTGTGGAT [GTGCAC_site9964] | 9.6 |
| ATATATATAATATATTGTACATATAATATATATATA [XGTACX_site4792] | 8.72 |
| ACATCTAGGCTTATTTTATGATACATGTGAATATAT [TGCATGCA_negctrl_site325] | 6.97 |
| GTTTTTGAGTAGTACACACACAATAAGGATGGATTC [CACACA_site3192] | 7.16 |
| ATAATTTCTATTTCACAAAAAAAAAAAAAAAAAAAA [CACACA_negctrl_site1012] | 6.95 |
| ACTAAAAGGCTTAAATGTACATATTATATATATATA [XGTACX_site5897] | 9.22 |
| ACATAACTTATATATACACACAATACAAATATATAT [CACACA_site2774] | 7.27 |
| GAATAATTAAAAGGTAGTACAAAGGTTATCAAAAGG [XGTACX_site8496] | 7.3 |
| GATATGATTATGTGATGGTGTTTTTGATAGATATTT [CACACA_negctrl_site1445] | 6.77 |
| TTGTTCTTTTGAAAGGTGCAAAAGAAAAATAATTAA | 11.2 |
| AGAAAACCGAAAGAGACACACAACATGTCGATTTAG [CACACA_site3764] | 6.62 |
| AGTTTTATGTAGTGTTGTACTTTATACAAATATATA [XGTACX_site990] | 7.16 |
| TACAAAAATGTAGTCACACATATGTATACTTTTATG [CACACA_site5607] | 6.8 |
| AGTAATAATATAATTTGTACATATATATATTATAAA [XGTACX_site7138] | 7.09 |
| TTTCTAATTTATATCACACACATATATAAATAGTAA [CACACA_site6156] | 6.93 |

| Sequence | gcPBM binding intensity (ln) |
| --- | --- |
| ATATATATAATTTAAAGTACATATTTAAGAATGAAA [XGTACX_site2238] | 7.28 |
| TGAAAAGATAAAAAATGTACATATATATTATATATA [XGTACX_site5678] | 7.19 |
| TTTCTAAATAATATACACAAAAAAATAAAACACTAA [TGCATGCA_negctrl_site43] | 7.21 |
| ATACACAATTATTTTCCTATTATGCAAGCAAATTTA [CACACA_negctrl_site1176] | 7.22 |
| GTTTAACTGTTTTATACACACAATGTAGACAATAAA [CACACA_site8967] | 7.13 |
| CACTGTAAATAGAAAGTGCAAAAATTGTAAATAAAA [GTGCAC_site9980] | 8.62 |
| GTACAAAAAAAGTGTACACAAAGTAAGACTTTAATT [CACACA_site5068] | 7.96 |
| ACTTGATTACACAACCACAAGTAATTGAAATTATTT [XGTACX_negctrl_site297] | 7.47 |
| TAAATACATTGACACACACACAAATATGTACATACA [CACACA_site7371] | 7.16 |
| TTATATGTTTCTTCACGTACGTATAAAAATGAACTT [XGTACX_site1764] | 7.3 |
| TATTTTTATAAAAACTGTACATAATAAATAAAAATA [XGTACX_site4743] | 7.28 |
| AATCAAAGTAATTTAACACACAATTTTAATACTGTT [CACACA_site7169] | 6.83 |
| TATCATGTGCGTGCGTGTACTTAACACACATAATAT [XGTACX_site2404] | 7.13 |
| TTGTTCATTATGCACAGTACATAAAAAGTAAAAAAA [XGTACX_site2403] | 7.46 |
| ATATTGACAAATATTACACACATATATATATATATA [CACACA_site4079] | 9.15 |
| TCATTTATTTTAAGGTGTACCGTTTAAAATCACAAA [XGTACX_site3243] | 6.98 |
| TTTTTTTGCGCGGGAAGAATAAAATTTATAGAATAT [TGCATGCA_negctrl_site306] | 7.2 |
| AATTTACACGTACGTGTACACACAAAAATATGTTTT [CACACA_site8242] | 7.44 |
| CAGACATTAATAAGTAGTACACAATAATTGACTAGG [XGTACX_site854] | 7 |
| AATGTTTAATATAACGCATGCCTTAATATAGAATGC [TGCATGCA_site463] | 6.87 |
| ATTTCTATAAAAATAATCTACATTTTTTTTTTTTTT [CACACA_negctrl_site917] | 6.88 |
| TAACCACAATTTTAATGTACATATATATTTATATAT [XGTACX_site8968] | 7.14 |
